Experimental data published in PubChem BioAssay AID2100 (National Center for Advancing Translational Sciences (NCATS), 2009).
Out of some 300,000 compounds screened, about 1,200 (0.4%) were called active. This list was built around the results that the source calls inconclusive (neither active nor inactive); the mix of calls is not that of the screen. Calls follow the shape of the dose curve; as a rule, active = well fitted inhibition curve with a large enough effect; inconclusive = small, poorly fitted or top-dose-only effect, or another doubt; inactive = no such curve, though single readings can be large or run the other way. Potencies beside an inconclusive call are fits to weak or partial responses and may not hold up.

biological target: Lysosomal alpha-glucosidase (Homo sapiens) (UniProt P10253); experiment: qHTS Assay for Inhibitors and Activators of Human alpha-Glucosidase Cleavage of Glycogen; details: recombinant GAA, glycogen substrate, Amplex Red glucose oxidase fluorescence; activity change, negative = inhibition: at 76.4 µM (top of the series) unless noted;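 as to activity change, negative = inhibition: 0% = full enzyme reaction and -100% = no-enzyme basal signal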
Summary of the method: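 Recombinant human enzyme (4 nM); glycogen substrate; 37 C, 40 min, pH 5.0. Readout: coupled glucose oxidase/Amplex Red fluorescence.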
Potency is read from the fitted curve at half-maximal effect.

| SMILES | Potency | activity change, negative = inhibition |
| --- | --- | --- |
| CCc1cc(=O)oc2cc(C)cc(OC(C)C(=O)NC(Cc3c[nH]c4ccc(O)cc34)C(=O)O)c12 (centres undefined) | inconclusive: 5.62 µM [inhibitor, full curve] |  |
| O=C(O)c1ccc(N/N=C/c2cc3ccccc3nc2Cl)cc1 | inconclusive: 20 µM [inhibitor, partial curve] |  |
| CC(=O)Nc1nnc(SCC(=O)NC(C)(C)C)s1 |  | inconclusive: 31.1% [activator] |
| OC[C@H]1O[C@@H](Oc2cc(O)cc(/C=C/c3ccc(O)cc3)c2)[C@H](O)[C@@H](O)[C@@H]1O | inconclusive: 35.5 µM [inhibitor, partial curve] |  |
| CSC1=C(C#N)C(c2ccncc2)C(C(=O)Nc2ccccc2)=C(C)N1 (centres undefined) | inconclusive: 28.2 µM [activator, single point] |  |
| COc1cc(/C=N/NC(=O)c2nc(-c3ccccc3)n(-c3ccccc3)n2)ccc1O | inconclusive: 15.8 µM [inhibitor, single point] |  |
| O=C1CC(c2ccc(O)c(O)c2)Oc2cc(O)cc(O)c21 (centres undefined) | inconclusive: 12.6 µM [inhibitor, partial curve] |  |
| CCN(CC)S(=O)(=O)c1cccc(C(=O)N/N=C2\CC(=O)CC(C)(C)C2)c1 | inconclusive: 15.8 µM [inhibitor, partial curve] |  |
| COc1ccc(NC(=S)N(CCCN2CCOCC2)Cc2cn(C)c3ccccc23)cc1 |  | inactive: -24.2% |
| O=C(NNc1nc2c(F)cc(F)cc2s1)C1COc2ccccc2O1 (centres undefined) | inconclusive: 7.03 µM [inhibitor, full curve] |  |
| O=c1c(O)c(-c2ccc(O)cc2O)oc2cc(O)cc(O)c12 | active: 3.16 µM |  |
| COc1ccc(/C=C(/NC(=O)c2ccc([N+](=O)[O-])cc2)C(=O)NCCCN(C)C)cc1 |  | inconclusive: 35.3% [activator] |
| CCOC(=O)Nc1ccc2c(c1)N(C(=O)CN(CC)CC)c1ccccc1CC2 | active: 8.91 µM |  |
| Cc1nc2ccccn2c1C(=O)NN=C1C2CC3CC(C2)CC1C3 |  | inactive: -0.431% |
| COc1cccc(C2C(C(=O)Nc3ccccc3)=C(C)Nc3nc(-c4ccccc4)nn32)c1OC (centres undefined) | inconclusive: 25.1 µM [inhibitor, partial curve, poor fit] |  |
| CC(=O)Nc1ccc([N+](=O)[O-])cn1 | inconclusive: 2.8 µM [inhibitor, single point] |  |
| COc1cc(C(=O)N/N=C(\Cc2ncc[nH]2)c2ccccc2)cc(OC)c1OC | inconclusive: 44.7 µM [inhibitor, partial curve] |  |
| CCCN1C(=O)C(Cc2nc3ccccc3c(=O)n2-c2cccc(C)c2)c2ccccc21 (centres undefined) |  | inactive: -9.14% [at 76.3 µM] |
| CC(C)(C)OC(=O)N1CCC(c2nnc(SCc3ccccc3)o2)CC1 | inconclusive: 5.01 µM [inhibitor, full curve] |  |
| CC(C)(C)c1cc(CN2CCCCC2)cc(C(C)(C)C)c1O |  | inactive: -9.84% |
| CCc1cccc(NS(=O)(=O)c2ccc3c(c2)CC(C)N3C(=O)C2CC2)c1 (centres undefined) |  | inactive: -17% [at 76.3 µM] |
| O=C1C2=C(c3ccccc31)[N+](=O)C1CCCCC1N2[O-] (centres undefined) |  | inactive: -5.1% |
| N#Cc1nc(-c2cccc3ccccc23)oc1NCCN1CCCCC1 | inconclusive: 31.4 µM [inhibitor, single point] |  |

| SMILES | Potency | activity change, negative = inhibition |
| --- | --- | --- |
| O=C(NNc1c2ccccc2nc2ccccc12)c1ccccc1O |  | inactive: 7.33% |
| COc1ccc(-c2nn(-c3ccccc3)cc2/C=N/Nc2ccccn2)cc1OC | inconclusive: 22.4 µM [inhibitor, partial curve] |  |
| COc1ccccc1/C=C/c1nc(C#N)c(NC2CCCCC2)o1 | inconclusive: 4.47 µM [inhibitor, full curve] |  |
| O=C1CCC/C(=N/NC(=O)c2sc3ccccc3c2Cl)C1 | inconclusive: 4.47 µM [inhibitor, full curve] |  |
| COc1ccc(N2CCN(C(=O)CSc3nc4[nH]ncc4c(=O)n3-c3cccc4ccccc34)CC2)cc1 |  | inactive: -3.4% |
| CN(C)NC(=O)c1ccsc1NC(=O)c1ccc(S(=O)(=O)N2CCCC2)cc1 | inconclusive: 12.6 µM [inhibitor, partial curve] |  |
| Cc1ccc(-c2c3c(=O)n(C)c(=O)n(C)c3c3n2-c2ccccc2NC3c2ccc(C)cc2O)cc1 (centres undefined) | inconclusive: 6.31 µM [inhibitor, full curve, poor fit] |  |
| C/C(=N\Nc1ncc(Cl)cc1Cl)c1cccs1 | inconclusive: 7.88 µM [inhibitor, partial curve] |  |
| Nc1ccc(N2CCCCCC2)cc1 | inconclusive: 22.4 µM [inhibitor, partial curve] |  |
| COc1cc(/C=N/NC(=S)Nc2cccc(Cl)c2C)ccc1OCC(=O)N1CC(C)OC(C)C1 (centres undefined) | inconclusive: 12.6 µM [inhibitor, partial curve] |  |
| CC(=O)Nc1ccc(N2CCN(C(=O)c3cccs3)CC2)cc1 |  | inactive: 3.92% |
| Cc1ccc(S(=O)(=O)N/N=C/c2ccc(O)cc2O)cc1[N+](=O)[O-] | active: 25.1 µM |  |
| COc1ccc(NC2=C3CCCC=C3N(c3ccc(OC)cc3)C2=O)cc1 | inconclusive: 17.6 µM [inhibitor, partial curve] |  |
| CC(/C=N/n1c(C2CCCCC2)n[nH]c1=S)=C\c1ccccc1 | inconclusive: 28.2 µM [inhibitor, single point] |  |
| Cc1nc(N)sc1C(=O)N/N=C/c1cccnc1 | inconclusive: 3.16 µM [inhibitor, partial curve] |  |
| CNc1ccc(Br)cc(C(=O)/C=C/c2cccc(OC)c2)c1=O | inconclusive: 19.8 µM [inhibitor, single point] |  |
| COc1ccc(/C=N/Nc2nonc2N)cc1OC | active: 15.8 µM |  |
| CCOC(=O)c1c(C)sc(-c2c(-c3ccccc3)[nH]c3[nH]c(=O)[nH]c(=O)c23)c1O | inconclusive: 10 µM [inhibitor, partial curve] |  |
| O=C(CSc1nc2cc(Cl)ccc2s1)c1cc2ccccc2o1 | inconclusive: 22.4 µM [inhibitor, partial curve] |  |
| O=S1(=O)N=C(N/N=C/c2ccco2)c2ccccc21 | inconclusive: 28.2 µM [inhibitor, partial curve] |  |
| Cc1ccc(O)c(NC(=O)c2noc(C(C)C)c2[N+](=O)[O-])c1 | inconclusive: 22.2 µM [inhibitor, single point] |  |
| Cc1ccc(-c2cc(C(=O)N3CCN(S(=O)(=O)c4ccc(Br)cc4)CC3)[nH]n2)c(C)c1 |  | inactive: -1.88% [at 76.3 µM] |
| CC(C)(C)C1CCc2c(sc(NC(=O)c3cccc(Cl)c3)c2C(=O)NCc2ccco2)C1 (centres undefined) | inconclusive: 10 µM [inhibitor, single point] |  |

| SMILES | Potency | activity change, negative = inhibition |
| --- | --- | --- |
| COc1ccc(/C=N/NC(=S)Nc2ccccc2[N+](=O)[O-])cc1O | inconclusive: 15.8 µM [inhibitor, partial curve] |  |
| Fc1ccccc1-c1nc(N2CCN(c3cccc(Cl)c3)CC2)c2ccccc2n1 |  | inactive: -8.09% [at 76.3 µM] |
| CCCNC(=O)CS(=O)Cc1nc(-c2ccc(OC)cc2)oc1C (centres undefined) | inconclusive: 100 µM [inhibitor, partial curve, poor fit] |  |
| O=C(CNCCC1=CCCCC1)Nc1ccc(N2CCCCCC2)cc1 | inconclusive: 17.8 µM [inhibitor, partial curve] |  |
| O=C(CN1C(=O)NC2(CCCCCCC2)C1=O)NCc1cccs1 |  | inactive: 16.7% |
| COC(=O)c1cccc(-c2ccc(C(c3c(C)[nH][nH]c3=O)c3c(C)[nH][nH]c3=O)o2)c1 |  | inactive: -15.4% |
| COc1ccc(/C=N/NC(=O)c2ccoc2C)cc1O | inconclusive: 35.5 µM [inhibitor, single point] |  |
| CC1(C)OC(=O)C(=NNc2ccc(O)cc2)C(=O)O1 | active: 11.1 µM |  |
| COc1cccc(NC(=O)CN2CCN(S(=O)(=O)c3ccc(C(C)C)cc3)CC2)c1 | inconclusive: 31.4 µM [inhibitor, partial curve] |  |
| FC(F)(F)c1cccc(NC(=S)NNC(=S)NCc2ccccc2)c1 | active: 12.5 µM |  |
| COc1ccc(Nc2c(-c3ccc(C)o3)nc3cc(C)ccn23)cc1 | active: 5.62 µM |  |
| C=CCNC(=S)Nc1sc2c(c1C(N)=O)CCCC2 | inconclusive: 12.6 µM [inhibitor, partial curve] |  |
| O=C(NCCc1ccccc1)C1CCCN(S(=O)(=O)c2cccs2)C1 (centres undefined) | inconclusive: 35.5 µM [inhibitor, single point] |  |
| Cc1ccc(OCCn2cc(/C(N)=N/O)c3ccccc32)cc1C | active: 39.8 µM |  |
| CCCCNC(=S)N/N=C1\C(=O)c2cccc3cccc1c23 | inconclusive: 31.4 µM [inhibitor, single point] |  |
| O=S(=O)(Nc1ccc(O)c(NS(=O)(=O)c2ccccc2)c1)c1ccccc1 | inconclusive: 11.2 µM [inhibitor, single point] |  |
| Cc1ccccc1/C=N/Nc1nc2ccccc2[nH]1 | inconclusive: 14 µM [inhibitor, partial curve] |  |
| CSc1ccccc1NC(=O)COC(=O)c1ccccc1O | inconclusive: 11.2 µM [activator, partial curve] |  |
| COc1ccccc1-n1c(SCC(=O)NCc2ccc3c(c2)OCO3)nc2cc([N+](=O)[O-])ccc21 | inconclusive: 2 µM [inhibitor, full curve, poor fit] |  |
| COc1cc(NC(=S)NNC(=O)C(C)(C)O)cc(OC)c1 | inconclusive: 3.98 µM [inhibitor, single point] |  |
| CCc1cc(C(=O)c2ccc(OC)cc2)c(N)s1 | inconclusive: 25.1 µM [inhibitor, partial curve] |  |
| Nc1ccc2[nH]ncc2c1 | inconclusive: 39.5 µM [inhibitor, single point] |  |
| O=C(CN1C(=O)C(=O)N(Cc2ccccc2)C1=O)Nc1cc(Cl)cc(Cl)c1 |  | inactive: 0.825% |
